Laboratory results: paper PMC11945542 (Viruses, 2025)

How the values were obtained:
SARS-CoV-2 = format: cell-based; conditions: VeroE6 cells, plaque reduction assay, 65 h

In the case of `O=C(Nc1ccc(Oc2ccncc2)cc1)Nc1cc(C(F)(F)F)ccc1-n1cncn1` [Compound 3], the “host cell toxicity (visual)” value (VeroE6 cells) is reported as “displayed host cell toxicity”.
In the case of `CNC(=O)c1cc(Oc2ccc(NC(=O)Nc3cc(C(F)(F)F)ccc3-n3ccnc3)cc2)ccn1` [Compound 2], the “antiviral activity against SARS-CoV-2 (in words)” value (SARS-CoV-2) is reported as “low activity”.
`CNC(=O)c1cc(Oc2ccc(NC(=O)Nc3cc(C(F)(F)F)ccc3-n3cncn3)cc2)ccn1` [Compound 1] was tested, and the “antiviral activity against SARS-CoV-2 (in words)” value (SARS-CoV-2) was “dose–response antiviral activity”.
